The results in this text go back to PMC4336329 (PLoS ONE, 2015).

The whole screen tested about 310,000 compounds, of which about 14,000 (4.5%) showed an effect of 50% or more. The effect is printed as a negative number. This is one part of the list.
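Also: peak tail current of the secondary pulse compared with the same well before compound.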

For the test, the target named is human ether-à-go-go-related gene (hERG) potassium channel (human, UniProt Q12809). Put plainly: primary screen, population patch clamp on CHO cells stably expressing hERG.
Chain of human ether-à-go-go-related gene (hERG) potassium channel (Q12809 whole entry, looked up): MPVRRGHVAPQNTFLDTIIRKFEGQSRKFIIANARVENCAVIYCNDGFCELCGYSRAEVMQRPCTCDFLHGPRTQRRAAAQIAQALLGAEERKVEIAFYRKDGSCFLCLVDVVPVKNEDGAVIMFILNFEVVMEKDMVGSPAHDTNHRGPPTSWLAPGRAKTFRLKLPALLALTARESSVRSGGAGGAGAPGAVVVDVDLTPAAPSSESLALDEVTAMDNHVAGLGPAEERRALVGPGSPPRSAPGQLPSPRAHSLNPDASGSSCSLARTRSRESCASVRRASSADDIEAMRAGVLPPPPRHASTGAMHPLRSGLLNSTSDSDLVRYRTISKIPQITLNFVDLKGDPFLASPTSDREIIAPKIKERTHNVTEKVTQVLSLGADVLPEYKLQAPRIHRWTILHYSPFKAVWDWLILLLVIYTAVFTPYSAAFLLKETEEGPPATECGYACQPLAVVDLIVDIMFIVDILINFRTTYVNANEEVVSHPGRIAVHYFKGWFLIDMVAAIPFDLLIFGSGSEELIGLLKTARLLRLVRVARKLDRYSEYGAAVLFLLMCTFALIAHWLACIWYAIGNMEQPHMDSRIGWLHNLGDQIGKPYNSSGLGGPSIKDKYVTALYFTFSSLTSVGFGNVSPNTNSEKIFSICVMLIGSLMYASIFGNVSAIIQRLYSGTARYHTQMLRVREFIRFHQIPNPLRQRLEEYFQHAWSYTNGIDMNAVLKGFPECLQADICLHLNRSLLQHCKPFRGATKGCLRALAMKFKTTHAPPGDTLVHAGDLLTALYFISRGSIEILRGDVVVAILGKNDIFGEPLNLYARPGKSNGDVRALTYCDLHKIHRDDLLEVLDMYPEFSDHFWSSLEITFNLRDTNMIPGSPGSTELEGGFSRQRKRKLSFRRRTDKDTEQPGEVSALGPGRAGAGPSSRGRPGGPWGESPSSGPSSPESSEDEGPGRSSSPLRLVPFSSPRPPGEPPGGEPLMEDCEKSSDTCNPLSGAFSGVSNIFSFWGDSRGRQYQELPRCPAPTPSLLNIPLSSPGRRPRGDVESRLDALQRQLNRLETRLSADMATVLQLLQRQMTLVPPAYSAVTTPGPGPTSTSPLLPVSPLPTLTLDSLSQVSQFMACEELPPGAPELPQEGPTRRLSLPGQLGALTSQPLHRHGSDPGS
In the case of `CCCCCCCCNC(=O)C(CCC(=O)OCc1ccccc1)NC(C)=O` (centres unmarked), the “hERG current change (%, negative = inhibition) at 10uM” value is reported as -13.1%.

As to `O=C(NC1CCCC1)c1ccc(Cl)s1`, the “hERG current change (%, negative = inhibition) at 10uM” value worked out at 9.43%.

Regarding `CCC(=O)Nc1ccc(NC(=O)CCc2ccccc2)cn1`, the “hERG current change (%, negative = inhibition) at 10uM” value was determined as 9.32%.

As for `[Cl-].c1ccc(C[n+]2cccc3c4ccccc4ccc32)cc1`, the “hERG current change (%, negative = inhibition) at 10uM” value is -15%.

For `CCC(C)NC(=O)C1CCN(S(=O)(=O)c2ccc(Br)s2)CC1` (centres unmarked), the “hERG current change (%, negative = inhibition) at 10uM” value came out at 0.913%.

As to `COc1ccc(CNC(=O)CC2Sc3ccccc3NC2=O)cc1` (centres unmarked), the “hERG current change (%, negative = inhibition) at 10uM” value was found to be 25.1%.

Regarding `CCOC(=O)C1=NOC2C(=O)N(c3ccc(Cl)cc3Cl)C(=O)C12` (centres unmarked), the “hERG current change (%, negative = inhibition) at 10uM” value came out at 21.3%.

On to `COc1ccc(NC(=O)CSc2nnnn2C)cc1`, for which the “hERG current change (%, negative = inhibition) at 10uM” value was -0.981%.

Regarding `CC1CCCCC1NC(=O)CN1CCC(O)(c2ccc(F)cc2)CC1` (centres unmarked), the “hERG current change (%, negative = inhibition) at 10uM” value is listed as -18%.

Regarding `O=C(NNC(=O)c1cc2ccccc2cc1O)Nc1ccc(F)cc1F`, the “hERG current change (%, negative = inhibition) at 10uM” value is on record as 17%.

In the case of `O=C1CCCC/C1=C\Nc1ccc(O)cc1`, the “hERG current change (%, negative = inhibition) at 10uM” value is given as 8.01%.

As to `COc1ccc2c(c1)CCCN2C(N)=O`, the “hERG current change (%, negative = inhibition) at 10uM” value is 17.4%.

In the case of `C=CCNC(=O)CSc1ccc(Cl)cc1`, the “hERG current change (%, negative = inhibition) at 10uM” value is recorded as 15.2%.

As for `Cc1cc(N2CCN(C(=O)c3cccs3)CC2)c(F)cc1[N+](=O)[O-]`, the “hERG current change (%, negative = inhibition) at 10uM” value is -67%.

Turning to `CCOC(=O)c1cnc2ccc(OC)cc2c1NCCN1CCOCC1`, the “hERG current change (%, negative = inhibition) at 10uM” value is listed as -48.5%.

On to `O=[N+]([O-])c1ccc(OCCOCCOc2ccc([N+](=O)[O-])cc2)cc1`, for which the “hERG current change (%, negative = inhibition) at 10uM” value is given as -16.6%.

Turning to `CC(C)c1ccc(O)c(NC(=S)NC(=O)c2cccnc2)c1`, the “hERG current change (%, negative = inhibition) at 10uM” value is 11%.

For the compound `COc1cccc(C(=O)Nc2cc3c(cc2Br)OCCCO3)c1`, the “hERG current change (%, negative = inhibition) at 10uM” value is on record as -13.1%.

On to `CCCCC1CCC(C(=O)OC(C)C(=O)Nc2ccc(NC(C)=O)cc2)CC1` (centres unmarked), for which the “hERG current change (%, negative = inhibition) at 10uM” value worked out at 15.8%.

Consider `CC(C)(NO)/C(=N/O)c1cccs1`, for which the “hERG current change (%, negative = inhibition) at 10uM” value is reported as -21.1%.

As to `COc1ccc(Nc2nc(Nc3ccc(OC)cc3OC)nc(N3CCN(C)CC3)n2)c(OC)c1`, the “hERG current change (%, negative = inhibition) at 10uM” value is recorded as -22.6%.

For `Cc1ccc(C(=O)NCC(=O)OCCOc2ccccc2Cl)cc1`, the “hERG current change (%, negative = inhibition) at 10uM” value amounted to 1.55%.

For `O=C(Nc1ccc(Br)cc1)C1CC(c2c(F)cccc2Cl)=NO1` (centres unmarked), the “hERG current change (%, negative = inhibition) at 10uM” value is listed as -8.82%.

`COc1ccc(-c2nc(=S)[nH][nH]2)cc1`: the “hERG current change (%, negative = inhibition) at 10uM” value is reported as 16.7%.

For the compound `CCOC(=O)C(=O)Nc1nc(-c2ccc3c(c2)CCN3C(=O)C2CC2)c(C)s1`, the “hERG current change (%, negative = inhibition) at 10uM” value was 8.4%.

For `CN1C(=O)/C(=C/c2ccc(N3CCCCCC3)o2)C(=O)NC1=S`, the “hERG current change (%, negative = inhibition) at 10uM” value is -6.31%.

`S=C(Nc1ccccc1)N1CCN(C(=S)Nc2ccccc2)CC1`: the “hERG current change (%, negative = inhibition) at 10uM” value is 25.2%.

`S=C(NCc1ccco1)N1CCN(Cc2ccco2)CC1`: the “hERG current change (%, negative = inhibition) at 10uM” value was found to be 1.76%.

Consider `COCCN1C(=O)C(=O)/C(=C(/O)c2ccc(S(=O)(=O)N3CCCCC3)cc2)C1c1ccc(O)c(OC)c1` (centres unmarked), for which the “hERG current change (%, negative = inhibition) at 10uM” value was 17.9%.

As for `Cc1cccc(Nc2nnc(SCC(=O)NC3CCCc4ccccc43)s2)c1` (centres unmarked), the “hERG current change (%, negative = inhibition) at 10uM” value is reported as -6.63%.

On to `COc1ccc(OC)c2[nH]c(C(=O)O)cc12`, for which the “hERG current change (%, negative = inhibition) at 10uM” value is recorded as 5.39%.

With `CCOC(=O)C1=C(c2ccccc2)NC(=O)NC1c1ccc(OC)cc1OC` (centres unmarked), the “hERG current change (%, negative = inhibition) at 10uM” value is reported as -0.406%.

Consider `O=C(O)CCC(=O)NCc1cn(-c2ccccc2)nc1-c1cccc(Br)c1`, for which the “hERG current change (%, negative = inhibition) at 10uM” value worked out at 15.1%.

Turning to `CCOc1ccc(C(C)NC(=S)NCc2ccc(F)cc2)cc1` (centres unmarked), the “hERG current change (%, negative = inhibition) at 10uM” value is given as 9.81%.

`CS(=O)(=O)N(CC(=O)Nc1ccccc1)c1cccc(Cl)c1Cl`: the “hERG current change (%, negative = inhibition) at 10uM” value amounted to 3.26%.

With `CC1CC(C)CN(S(=O)(=O)c2ccc(F)c(C(=O)Nc3ccc(Cl)cc3F)c2)C1` (centres unmarked), the “hERG current change (%, negative = inhibition) at 10uM” value is reported as 12.3%.

Regarding `Cc1ccc(NC(=O)Cc2noc3ccccc23)cc1`, the “hERG current change (%, negative = inhibition) at 10uM” value worked out at 24.6%.

Turning to `CCn1c(-c2cc(-c3ccccc3OC)nc3ccccc23)n[nH]c1=S`, the “hERG current change (%, negative = inhibition) at 10uM” value is listed as -8.18%.

Turning to `CCOC(=O)c1ccc(NC(=O)CN2C(=O)NC3(CCCCCCC3)C2=O)cc1`, the “hERG current change (%, negative = inhibition) at 10uM” value is on record as -7.35%.

As for `CCC(C)N1C(=O)S/C(=C/c2ccc(N3CCOCC3)cc2C)C1=O` (centres unmarked), the “hERG current change (%, negative = inhibition) at 10uM” value was determined as 2.7%.

For `CCOC(=O)c1sc2nc(C)nc(N3CCN(c4ncccn4)CC3)c2c1C`, the “hERG current change (%, negative = inhibition) at 10uM” value stood at 1.82%.

With `O=C(Nc1cccc(NC(=O)c2ccccc2Cl)c1)c1ccc(F)cc1`, the “hERG current change (%, negative = inhibition) at 10uM” value is recorded as -13.8%.

As for `O=C(CCN1C(=O)c2cccc3cccc(c23)C1=O)Nc1ccccc1`, the “hERG current change (%, negative = inhibition) at 10uM” value came out at 23.9%.

`COc1cccc(-c2nc(CS(=O)(=O)CC(=O)NC3CCCc4ccccc43)c(C)o2)c1` (centres unmarked): the “hERG current change (%, negative = inhibition) at 10uM” value is -1.74%.

Turning to `C/C(=N\OCC(=O)N/N=C/c1ccc(C)cc1O)c1cccs1`, the “hERG current change (%, negative = inhibition) at 10uM” value is given as 8.57%.

Consider `Cc1cc([N+](=O)[O-])nn1CC(=O)NCc1ccco1`, for which the “hERG current change (%, negative = inhibition) at 10uM” value is given as 1.03%.

Take `O=C(Nc1nc2ccc(F)cc2s1)c1ccccn1`: the “hERG current change (%, negative = inhibition) at 10uM” value was -2.4%.

Take `COc1ccc(C(=O)NCCS(=O)(=O)NCc2ccc3c(c2)OCO3)cc1`: the “hERG current change (%, negative = inhibition) at 10uM” value is recorded as -17.6%.

For `CCS(=O)(=O)N1CCC(C(=O)Nc2cc(C)ccc2O)CC1`, the “hERG current change (%, negative = inhibition) at 10uM” value was determined as 18.6%.

As for `COc1ccc(/C=C/C(=O)NC(=S)Nc2ccc(S(N)(=O)=O)cc2)cc1OC`, the “hERG current change (%, negative = inhibition) at 10uM” value was 19.7%.

Turning to `COc1ccc([C@H]2CC(=O)C=C(c3ccc(C)c4ccccc34)C2)cc1`, the “hERG current change (%, negative = inhibition) at 10uM” value is reported as 16.5%.

Turning to `CC(=O)N(CC(=O)O)c1ccccc1`, the “hERG current change (%, negative = inhibition) at 10uM” value was determined as 10.5%.

Take `CC(=O)Nc1ccc(S(=O)(=O)NCC2CCC(C(=O)NCCCOC(C)C)CC2)cc1` (centres unmarked): the “hERG current change (%, negative = inhibition) at 10uM” value is -0.857%.

Regarding `CCCS(=O)(=O)N1CCC(C(=O)NCCCOCC)CC1`, the “hERG current change (%, negative = inhibition) at 10uM” value is -1.18%.

As for `Fc1ccc(-n2cc(CNCCc3ccccn3)c(-c3ccccc3Cl)n2)cc1`, the “hERG current change (%, negative = inhibition) at 10uM” value is given as -89.9%.

As for `Cc1c(Cl)cccc1NC(=O)CN1CCN(CCO)CC1`, the “hERG current change (%, negative = inhibition) at 10uM” value is 10.5%.

Turning to `COc1ccc(C(=O)Nc2ccc3ccccc3c2)cc1OC`, the “hERG current change (%, negative = inhibition) at 10uM” value is reported as 5.94%.

As for `CCN(Cc1ccc(C#CCCO)cc1)CC1CCCN(CCc2cccc(F)c2)C1` (centres unmarked), the “hERG current change (%, negative = inhibition) at 10uM” value is listed as -65.2%.

Consider `Cn1c(=O)oc2cc(S(=O)(=O)N3CCN(C(=O)c4ccco4)CC3)ccc21`, for which the “hERG current change (%, negative = inhibition) at 10uM” value is -6.91%.
